# Experimental data published in the supplement of paper PMC12217912.
# The other results are listed elsewhere or left out. The full chains were built here from the parent and the listed change. Inactive controls read about 0.05.
# B1: TEV protease; numbered along this chain (parent)
# chain: MGESLFKGPRDYNPISSSICHLTNESDGHTTSLYGIGFGPFIITNKHLFRRNNGTLVVQSLHGVFKVKDTTTLQQHLVDGRDMIIIRMPKDFPPFPQKLKFREPQREERICLVTTNFQTKSMSSMVSDTSCTFPSGDGIFWKHWIQTKDGQCGSPLVSTRDGFIVGIHSASNFTNTNNYFTSVPKNFMELLTNQEAQQWVSGWRLNADSVLWGGHKVFMVKPEEPFQPVKEATQL
# Variants of: B1
# Experiment: raw area under fraction-flipped curve 0-4 h after induction (AUC4h, not background-subtracted), DNA-recorder readout of cleavage of the substrate (dimensionless); higher = more cleavage of the substrate by the protease variant
# Conditions: temperature: 34 °C; time window: 0-4 h after rhamnose induction
# Description: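 In vivo DNA recorder in E. coli TOP10(DE3) ΔrhaA at 34 °C. Each TEVp single-site mutant (parent TEVp 0) is paired with a single-site variant of the 7-mer TEVs (canonical ENLYFQ|S). The substrate sits between flexible linkers in a Bxb1-sfGFP-TEVs-SsrA fusion, so cleavage stabilises Bxb1 and speeds flipping of a recombination array, read by NGS. The value is the raw area under the fraction-flipped curve over 0-4 h after rhamnose induction (AUC4h), with ≥20 reads per time point. It is not background-subtracted; inactive controls average about 0.047.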
# 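Note: Bxb1 expression induced with 0.2% (w/v) L-rhamnose at OD600 near 0.5, cultures sampled hourly, flipped fraction per protease–substrate barcode pair counted by paired-end Illumina sequencing.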
Variant,area with substrate ENLYAQS,area with substrate ENLYEQS,area with substrate ENLYGQS,area with substrate ENLYHQS,area with substrate ENLYIQS,area with substrate ENLYKQS,area with substrate ENLYLQS,area with substrate ENLYMQS,area with substrate ENLYNQS,area with substrate ENLYPQS,area with substrate ENLYQQS,area with substrate ENLYRQS,area with substrate ENLYSQS,area with substrate ENLYTQS,area with substrate ENLYVQS,area with substrate ENLYWQS,area with substrate ENLYYQS,area with substrate ENLYCQS,area with substrate ENLYDQS
MGESLFKGPRDYNPISSSICHLTNESDGHTTSLYGIGFGPFIITNKHLFRRNNGTLVVQSLHGVFKVKDTTTLQQHLVDGRDMIIIRMPKDFPPFPQKLKFREPQREERICLVTTNFQTKSMSSMVSDTSCTFPSGDGIFWKHWIQTGDGQCGSPLVSTRDGFIVGIHSASNFTNTNNYFTSVPKNFMELLTNQEAQQWVSGWRLNADSVLWGGHKVFMVKPEEPFQPVKEATQL [K148G],0.0762,0.0673,0.0543,0.0555,0.118,0.0419,0.0846,0.0672,0.0579,0.064,0.0725,0.0662,0.0714,0.0594,0.0764,0.0633,0.0371,,
MGESLFKGPRDYNPISSSICHLTNESDGHTTSLYGIGFGPFIITNKHLFRRNNGTLVVQSLHGVFKVKDTTTLQQHLVDGRDMIIIRMPKDFPPFPQKLKFREPQREERICLVTTNFQTKSMSSMVSDTSCTFPSGDGIKWKHWIQTKDGQCGSPLVSTRDGFIVGIHSASNFTNTNNYFTSVPKNFMELLTNQEAQQWVSGWRLNADSVLWGGHKVFMVKPEEPFQPVKEATQL [F140K],0.0972,0.0697,,0.0644,0.0583,0.0542,0.0536,0.0515,0.0528,,0.0595,0.0931,,0.0706,,0.051,,0.0445,0.0596
MGESLFKGPRDYNPISSSICHLTNESDGHTTSLYGIGFGPFIITNKHLFRRNNGTLVVQSLHGVFKVKDTTTLQQHLVDGRDMIIIRMPKDFPPFPQKLKFREPQREERICLVTTNFQTKSMSSMVSDTSCTFPSGDGIFWKHWFQTKDGQCGSPLVSTRDGFIVGIHSASNFTNTNNYFTSVPKNFMELLTNQEAQQWVSGWRLNADSVLWGGHKVFMVKPEEPFQPVKEATQL [I145F],0.119,,0.0558,,,,,0.0715,0.0877,0.0863,,,,,0.0543,,,,
MGESLFKGPRDYNPISSSICHLTNESDGHTTSLYGIGFGPFIITNKHLFRRNNGTLVVQSLHGVFKVKDTTTLQQHLVDGRDMIIIRMPKDFPPFPQKLKFREPQREERICLVTTNFQTKSMSSMVSDTSCTFPSGDGIFWKHWDQTKDGQCGSPLVSTRDGFIVGIHSASNFTNTNNYFTSVPKNFMELLTNQEAQQWVSGWRLNADSVLWGGHKVFMVKPEEPFQPVKEATQL [I145D],0.0556,0.066,0.0535,0.0567,,0.0377,0.0571,0.0384,0.0535,,,0.0451,0.0595,0.0606,0.0559,0.0562,0.0685,,
MGESLFKGPRDYNPISSSICHLTNESDGHTTSLYGIGFGPFIITNKHLFRRNNGTLVVQSLHGVFKVKDTTTLQQHLVDGRDMIIIRMPKDFPPFPQKLKFREPQREERICLVTTNFQTKSMSSMVSDTSCTFPSGDGIFMKHWIQTKDGQCGSPLVSTRDGFIVGIHSASNFTNTNNYFTSVPKNFMELLTNQEAQQWVSGWRLNADSVLWGGHKVFMVKPEEPFQPVKEATQL [W141M],0.0614,0.0591,,0.0544,0.0748,0.0626,,0.0569,0.0695,0.0612,0.0528,0.0528,0.0575,,0.133,,,0.0542,0.0531
MGESLFKGPRDYNPISSSICHLTNESDGHTTSLYGIGFGPFIITNKHLFRRNNGTLVVQSLHGVFKVKDTTTLQQHLVDGRDMIIIRMPKDFPPFPQKLKFREPQREERICLVTTNFQTKSMSSMVSDTSCTFPSGDGIFWKHWIQTKDGQCGSPLVSTRDGRIVGIHSASNFTNTNNYFTSVPKNFMELLTNQEAQQWVSGWRLNADSVLWGGHKVFMVKPEEPFQPVKEATQL [F163R],0.0486,0.0711,0.0621,0.0692,,0.0549,0.0842,0.0945,0.0809,0.0728,0.0761,0.0586,0.0734,,0.122,0.113,,,
MGESLFKGPRDYNPISSSICHLTNESDGHTTSLYGIGFGPFIITNKHLFRRNNGTLVVQSLHGVFKVKDTTTLQQHLVDGRDMIIIRMPKDFPPFPQKLKFREPQREERICLVTTNFQTKSMSSMVSDTSCTFPSGDGIFWKHWIQTKDGQCGSPLVSTRDGVIVGIHSASNFTNTNNYFTSVPKNFMELLTNQEAQQWVSGWRLNADSVLWGGHKVFMVKPEEPFQPVKEATQL [F163V],0.0689,,0.0696,0.0763,,0.0708,,,0.0565,0.107,0.0648,0.0545,,0.0945,0.103,0.093,,,
MGESLFKGPRDYNPISSSICHLTNESDGHTTSLYGIGFGPFIITNKHLFRRNNGTLVVQSLHGVFKVKDTTTLQQHLVDGRDMIIIRMPKDFPPFPQKLKFREPQREERICLVTTNFQTKSMSSMVSDTSCTFPSGDGIFWKHWIQNKDGQCGSPLVSTRDGFIVGIHSASNFTNTNNYFTSVPKNFMELLTNQEAQQWVSGWRLNADSVLWGGHKVFMVKPEEPFQPVKEATQL [T147N],0.0712,0.0725,0.0596,0.059,0.0571,0.0573,,0.0591,0.042,0.0657,0.0639,0.0543,,,0.0531,0.0601,0.0658,,0.0572
MGESLFKGPRDYNPISSSICHLTNESDGHTTSLYGIGFGPFIITNKHLFRRNNGTLVVQSLHGVFKVKDTTTLQQHLVDGRDMIIIRMPKDFPPFPQKLKFREPQREERICLVTTNFQTKSMSSMVSDTSCTFPSGDGIFWKHWIQTKDGQCGSPWVSTRDGFIVGIHSASNFTNTNNYFTSVPKNFMELLTNQEAQQWVSGWRLNADSVLWGGHKVFMVKPEEPFQPVKEATQL [L156W],0.0537,0.0639,0.0593,0.0648,0.0607,0.0483,0.0654,0.0615,0.0642,0.0702,0.0548,0.0656,0.0609,0.0593,0.0586,0.0576,0.0499,,0.0591
